{"source": "paper PMC12136788", "binders": {"B1": {"name": "chr1:60041781:60041782:+_ENSMUSG00000041040_ENSMUST00000036540|mus_hu|mus_mus_mus_hu_False|28_48 (ssRNA)", "RNA": "GGGAGUUCUACAGUCCGACGAUCAAGUUUACAAUAGUAAAGUAAAUGCAGUAGUGGCAAAUUUUCUUUUAUUUUCCUUCACAAAAGAAAACCUCAGUAACCCAGUCCAAUCCCAGAACAUAGUGAAAGCUAUAAAUUCUGACUCAACAGAGGAUUGAGCAUCA"}, "B2": {"name": "chr2:74714714:74714715:+_ENSMUSG00000027099_ENSMUST00000028511|mus_mus|FALSE|FALSE (ssRNA)", "RNA": "GGGAGUUCUACAGUCCGACGAUCAUGCUCAUAAAGAAAGAAAAUGUCAAGAUAUAGAAUUUAAUGUAACAAAUCAAACAAUUCAAAAGCAAAGUGUACACAAAUAACAGUACAAAGGACAUGUAUAUGACAUUAUGCAAAUUUCAACAGAGGAUUGAGCAUCA"}, "B3": {"name": "68597113_68597233_518_CDS_ENSG00000184939_ENST00000398253|human|control|control (ssRNA)", "RNA": "GGGAGUUCUACAGUCCGACGAUCCCUUAUUCUUGCAGGAAUGUUCAGUUGUGUAACCAAAUUGGUGUUCAAUCUAGAAUUUUCACCAAAUUUAUUUUGCUCAAAAUUUUCUUGUGGUGUAAUUAUUUUCUUCUGGGUGGAUGCCAACAGAGGAUUGAGCAUCA"}, "B4": {"name": "chr9:44212477:44212478:-_ENSMUSG00000032112_ENSMUST00000034623|mus_mus|FALSE|FALSE (ssRNA)", "RNA": "GGGAGUUCUACAGUCCGACGAUCUGGAUUCUUGAGGGCAAAGUCUGAGUAAAUUUCAUAAAUUUUUCGGAGAAGAGAAUCUAUUCCAGCUUGCCUAGGGUCUGCCAGGACCACAAACUUGAUCCCUGUCAGUGUUUGGAAGCACAACAGAGGAUUGAGCAUCA"}, "B5": {"name": "chr4:71639242:71639243:+_ENSG00000018189_ENST00000226328|hu_hu|motif|central (ssRNA)", "RNA": "GGGAGUUCUACAGUCCGACGAUCACCGUCUCCUUCAGUACCUUUACUGCUGUUCCCGUCCUUGAGAUACAUUGAAAAAUCGGUAACUCCAACCUGAGAGUCCAAGUCUUCUCCUUUCAUACAGAAAUUGGCAUCAAUGACAUUCAACAGAGGAUUGAGCAUCA"}, "B6": {"name": "102171521_102173921_3878_CDS_ENSMUSG00000021182_ENSMUST00000068411|mouse|control|control (ssRNA)", "RNA": "GGGAGUUCUACAGUCCGACGAUCCUCCCCUUUCAGCUGCUGGUGCAGGAAGCUGAUCCUGUCCAGCUCUCCUCGAAGCCUCUGGUUCUCGCUCGUGGCAAUGGCGUUGGUCUUCUGCUCCCGCUCAAGUGCCUCCCGCUCGGUCAACAGAGGAUUGAGCAUCA"}, "B7": {"name": "chr9:91949571:91949572:+_ENSG00000187742_ENST00000375807|hu_mus|motif|central (ssRNA)", "RNA": "GGGAGUUCUACAGUCCGACGAUCAUAAACACGCUUUUCUCUGUUGUAGGAAGGAUUUGAAGAUAAAGCCUCAGAUGUCACACGGACAUUUUUAGCAUCAGCUGAUGAAGUAGUCUUCUUUAGGUUUAUCAUGGAAGUCACAUUCAACAGAGGAUUGAGCAUCA"}, "B8": {"name": "82409419_82415958_1440_CDS_ENSG00000117114_ENST00000319517|human|control|control (ssRNA)", "RNA": "GGGAGUUCUACAGUCCGACGAUCGCCUUUCUGUGAAGUAGUGCUUGUGGUUGAUAUUAUGGUUUUGAACAGCUCAGCUGAAGAAGUUAUUGUCACAGCUGUGGUAGGCACUUGGGCAGGAUCAGGUGGACCAAACUCCAGAGACAACAGAGGAUUGAGCAUCA"}, "B9": {"name": "102510691_102510811_12989_CDS_ENSG00000197102_ENST00000360184|human|control|control (ssRNA)", "RNA": "GGGAGUUCUACAGUCCGACGAUCUUGAAUGUCUUUAUGUCCGUCGACCUUGCAUGCCAGCUUAAACUCACUGUCGAAACUCCUGGUUGUGAACAGGCGCUCCAGGAAGGUGUUGAGCAGACGCUGGUCAAACUCGUUGUCCACCAACAGAGGAUUGAGCAUCA"}, "B10": {"name": "chr17:1756424:1756425:+_ENSG00000132383_ENST00000254719|hu_hu|FALSE|FALSE (ssRNA)", "RNA": "GGGAGUUCUACAGUCCGACGAUCAUAGGGCACUGGAUUGCCAAUCUUCACUCCAACUGCUUCAGCUGACUUCAAAACUUCUAAUUCCAUCAAGAUAACUACUCUCCUUCCGUCUUUCAGAGUGUUCACAAUAAAUCUGUGAAUCAACAGAGGAUUGAGCAUCA"}, "B11": {"name": "97146933_97147053_736_CDS_ENSMUSG00000050079_ENSMUST00000060389|mouse|control|control (ssRNA)", "RNA": "GGGAGUUCUACAGUCCGACGAUCAACAUUGUCUUCUGCUCCACUGUCAUCUCGGCAGAUGCAGGAAUUACCCAUAGUAGCAGUGGCACCUGUAGUCCCCAAUAGGUGGGCUAUGUGCUCCUCAAGAGUCAGCAGCAGACCCUGCAACAGAGGAUUGAGCAUCA"}, "B12": {"name": "3419383_3419591_756_3pUTR_ENSMUSG00000024231_ENSMUST00000080089|mouse|control|control (ssRNA)", "RNA": "GGGAGUUCUACAGUCCGACGAUCUCUUGCUUGUAAUAUUCUCCCGUUUCAGUCAGAAAGGGAGACACGAAUAUUCCCUGAUAAAACUUUAAGGGAAAUUUUUUCUUAUACUGUUCAACAUGAACAAAGGAGUUAAUAACCCCACAACAGAGGAUUGAGCAUCA"}, "B13": {"name": "chr4:57889662:57889663:+_ENSG00000047315_ENST00000314595|hu_mus|FALSE|FALSE (ssRNA)", "RNA": "GGGAGUUCUACAGUCCGACGAUCGUUGAGAGUGACCAUGACCUGGUCCACGAUGCCCGUCUCACUAGUUCUGAGGAAAGUGCUGCAGUCCCUCUUGGUGUAGCGCCUGUUGGUGCUCUCCAGCUCAUCCUCGUUCUCGGGUAACAACAGAGGAUUGAGCAUCA"}, "B14": {"name": "33856616_33856736_4179_3pUTR_ENSMUSG00000042197_ENSMUST00000044455|mouse|control|control (ssRNA)", "RNA": "GGGAGUUCUACAGUCCGACGAUCAACGAGCUGAAGCAGGCCCAAUGCUGCACAAAGACAUGUGCAAACUUGCCCCAGUAGAGUCUGGGUGGUUAGCCCUUUCUCAGAGGAAACCUGCACUGCUCCAGUCAUGGGCUAAAGUCUCAACAGAGGAUUGAGCAUCA"}, "B15": {"name": "chr15:103030146:103030147:-_ENSMUSG00000009575_ENSMUST00000118152|mus_mus|FALSE|FALSE (ssRNA)", "RNA": "GGGAGUUCUACAGUCCGACGAUCUUUGUUUUCCGCAUCCUCUGGAUAUGCGUGCCACGUCAGUCUCUCUUCAUAAAAUGCUAUCACAAUCUGUGGACACUUCACGUUAGCUUCUUUUGCAAGAACCAGGUCAGCUUCAUCUGUCAACAGAGGAUUGAGCAUCA"}, "B16": {"name": "chr2:48026839:48026840:+_ENSG00000116062_ENST00000540021|hu_hu|hu_hu_hu_mus_False|18_108 (ssRNA)", "RNA": "GGGAGUUCUACAGUCCGACGAUCAUAGUGUGCCACUAGCGUCCUAAAUCUGGAACAGUGGCGGUCAUCCGAAAACUGGCCGAUGAAAAACUUGCCCAGUGAAGUGUCCACAAAGCACACACCAUAUACACGAGUGUGACCAGACAACAGAGGAUUGAGCAUCA"}, "B17": {"name": "chr4:81121375:81121376:+_ENSG00000152784_ENST00000415738|hu_hu|FALSE|FALSE (ssRNA)", "RNA": "GGGAGUUCUACAGUCCGACGAUCUACCCGAAAGAUAUACGGUACUGUUCUCUUGUCAGUAGACUUGAGAGCUAUGAAAGCUAUGCUGUCAUAUAGGGAAGUAUGGCUCAGGACACAGGGACCAAAUAUAGCAUUCUCAGGGAUCAACAGAGGAUUGAGCAUCA"}, "B18": {"name": "67236988_67238599_921_3pUTR_ENSMUSG00000031605_ENSMUST00000034017|mouse|control|control (ssRNA)", "RNA": "GGGAGUUCUACAGUCCGACGAUCUAAUCUUUGCACGCACUGCUGUUCUUCACCAAUGCUUCCUCUUCAACCCGCUGCACCAAGUACUCCCGAGGAAGCAGAGGUAAUCGGACAUGCUCCAUGAGCCGAGCCAUGAACUCCUGUCAACAGAGGAUUGAGCAUCA"}, "B19": {"name": "165881002_165881122_2492_3pUTR_ENSMUSG00000027678_ENSMUST00000088095|mouse|control|control (ssRNA)", "RNA": "GGGAGUUCUACAGUCCGACGAUCUCUUAAUUUUGGGGUCUUUCUCUUGGCCAGAGCUGGGAUUGGUGGAGCAGCUGCACUGACUCAGUUUACUGUCCCCACUGUCGGCCUGGGGCUGCAGCUCUUUGGCAAGCACAUCACUGGCAACAGAGGAUUGAGCAUCA"}, "B20": {"name": "chr21:32491406:32491407:-_ENSG00000156299_ENST00000286827|hu_mus|FALSE|FALSE (ssRNA)", "RNA": "GGGAGUUCUACAGUCCGACGAUCAACCCUUCUUAAGGAAUGGACAUUGUGAAAUGGGGAGGAGGAGGGCGGAACAAAAAGCUAUAAACCUUUUUUUUUUUAAAAAUGAAAGUGCUAGAAUGGGUUUUGUUCUUCCUGUCUGGACAACAGAGGAUUGAGCAUCA"}, "B21": {"name": "chr18:25636641:25636642:-_ENSMUSG00000024268_ENSMUST00000025117|mus_mus|motif|central (ssRNA)", "RNA": "GGGAGUUCUACAGUCCGACGAUCUCAUUUACCAAAGAUAAAUAUCGUGCUUUCAUUAAAUAGUUUUCCUUGUUUUUUCUCGGUCAUUACAAUUAAAAGUCCUACAAAAUAUGCAAAUUUAUUUACAGAAAAACAGAGCCAGCACAACAGAGGAUUGAGCAUCA"}, "B22": {"name": "chr1:84735391:84735392:-_ENSMUSG00000026219_ENSMUST00000027421|perfect_dup|FALSE|FALSE (ssRNA)", "RNA": "GGGAGUUCUACAGUCCGACGAUCCAUUGCCCGGUCCCGAUCAAAUGCAGUUACAUAAAAAAGCAUUUGUCGGGUAUCAAAAGGAAAGAAAAAUGGGCAGGUUUUUCCUAGCUCAGUGAGCCAUGUUGGGAUGUUUCCUGUCAUCAACAGAGGAUUGAGCAUCA"}}, "note": "The other results are listed elsewhere or left out.", "data": [{"molecular_target": "T1, UNK ZnF1-3 (human, UniProt Q9C0B0 31-174)", "T1 sequence": "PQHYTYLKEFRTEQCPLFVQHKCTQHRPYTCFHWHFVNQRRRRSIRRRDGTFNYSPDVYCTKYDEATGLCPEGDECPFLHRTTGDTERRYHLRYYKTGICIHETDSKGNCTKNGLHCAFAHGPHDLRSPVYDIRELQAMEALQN", "test": "nsRBNS (natural sequence RNA bind-n-seq); RBNS binding buffer (assumed for nsRBNS): 25 mM Tris pH 7.5, 150 mM KCl, 3 mM MgCl2, 0.01% Triton X-100, 500 ug/ml BSA, 20 U/ml SUPERase-In, 4 C; UNK is unkempt and MSI1 is Musashi-1; names of the RNAs are library labels; protein concentration not given here; high values mean tight binding", "units": {"binding signal": "enrichment R"}, "values": [{"binder": "B1", "binding signal": 0.788}, {"binder": "B2", "binding signal": 1.58}, {"binder": "B3", "binding signal": 0.728}, {"binder": "B4", "binding signal": 1.18}, {"binder": "B5", "binding signal": 1.18}, {"binder": "B6", "binding signal": 0.689}, {"binder": "B7", "binding signal": 0.98}, {"binder": "B8", "binding signal": 1.33}, {"binder": "B9", "binding signal": 0.658}, {"binder": "B10", "binding signal": 0.849}, {"binder": "B11", "binding signal": 0.744}, {"binder": "B12", "binding signal": 0.582}, {"binder": "B13", "binding signal": 0.539}, {"binder": "B14", "binding signal": 0.539}, {"binder": "B15", "binding signal": 0.743}, {"binder": "B16", "binding signal": 1.13}, {"binder": "B17", "binding signal": 1.41}, {"binder": "B18", "binding signal": 0.73}, {"binder": "B19", "binding signal": 0.866}, {"binder": "B20", "binding signal": 2.2}, {"binder": "B21", "binding signal": 0.994}, {"binder": "B22", "binding signal": 0.656}]}]}
